Sequences and labels used below:
B1: UUCAUGU (DNA:RNA)
RNA: GGGAGACCGGAAUUCAGAUUGUCCUUCAUGUUUAAAUCCCGUCGUAGCCACCA
DNA 1: CAATCTGAATTCCGGTCTCCC
DNA 2: TGGTGGCTACGACGGGATT
B2: CGUCUGU (DNA:RNA)
RNA: B1 RNA with U25C, U26G, C27U, A28C
DNA 1: CAATCTGAATTCCGGTCTCCC
DNA 2: TGGTGGCTACGACGGGATT
B3: AUAGCAA (DNA:RNA)
RNA: B1 RNA with U25A, C27A, A28G, U29C, G30A, U31A
DNA 1: CAATCTGAATTCCGGTCTCCC
DNA 2: TGGTGGCTACGACGGGATT
B4: GCACCGG (DNA:RNA)
RNA: B1 RNA with U25G, U26C, C27A, A28C, U29C, U31G
DNA 1: CAATCTGAATTCCGGTCTCCC
DNA 2: TGGTGGCTACGACGGGATT
B5: UGCGGUA (DNA:RNA)
RNA: B1 RNA with U26G, A28G, U29G, G30U, U31A
DNA 1: CAATCTGAATTCCGGTCTCCC
DNA 2: TGGTGGCTACGACGGGATT
B6: CCCGUUU (DNA:RNA)
RNA: B1 RNA with U25C, U26C, A28G, G30U
DNA 1: CAATCTGAATTCCGGTCTCCC
DNA 2: TGGTGGCTACGACGGGATT
B7: ACUAAUA (DNA:RNA)
RNA: B1 RNA with U25A, U26C, C27U, U29A, G30U, U31A
DNA 1: CAATCTGAATTCCGGTCTCCC
DNA 2: TGGTGGCTACGACGGGATT
B8: GGCCGAG (DNA:RNA)
RNA: B1 RNA with U25G, U26G, A28C, U29G, G30A, U31G
DNA 1: CAATCTGAATTCCGGTCTCCC
DNA 2: TGGTGGCTACGACGGGATT
B9: CGGUUGC (DNA:RNA)
RNA: B1 RNA with U25C, U26G, C27G, A28U, U31C
DNA 1: CAATCTGAATTCCGGTCTCCC
DNA 2: TGGTGGCTACGACGGGATT

Substitutions are numbered along the chain they refer to; changes in the protein carry UniProt numbers. The list shows a part of the results.

This experiment has as its target T1, RBFOX1 RRM RbFoxmut (Fox-RRM*) (Homo sapiens, UniProt Q9NWB1 109-208, R118D;E147R;N151S;E152T).
T1 sequence: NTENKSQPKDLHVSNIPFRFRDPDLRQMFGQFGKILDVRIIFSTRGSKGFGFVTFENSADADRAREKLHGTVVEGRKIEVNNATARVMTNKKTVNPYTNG
Description: EMSA; HiTS-Eq, 1 nM pool, 10 min; buffer printed only for the single-RNA assays: 10 mM Tris pH 7.5, 150 mM NaCl, 3.4 mM EDTA, 0.001% NP-40, 30 C. Particulars: tags: His6 N-terminal (pET28a); label: 5' 32P. In short, it runs like this: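 Purified wild-type or mutant RbFox RRM at increasing concentrations was equilibrated with 1 nM of 5′-radiolabelled RNA carrying 7 randomized nucleotides for 10 min in 50 µL. Unbound RNA was separated by 8% native PAGE and sequenced. Relative association constants came from read-count changes of each RNA species compared with the control reaction, normalised to the cognate motif.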
For orientation: In EMSA bound probe runs differently from free probe, usually more slowly.
On to B1, for which the binding signal was 0.157 KA relative to UGCAUGU.

Regarding B2, the binding signal was 0.159 KA relative to UGCAUGU.

Take B3: the binding signal is 0.0747 KA relative to UGCAUGU.

Regarding B4, the binding signal was 0.102 KA relative to UGCAUGU.

Consider B5, for which the binding signal is 0.187 KA relative to UGCAUGU.

Take B6: the binding signal was 0.0655 KA relative to UGCAUGU.

For the molecule B7, the binding signal was 0.139 KA relative to UGCAUGU.

As to B8, the binding signal is 0.106 KA relative to UGCAUGU.

For the molecule B9, the binding signal was 0.118 KA relative to UGCAUGU.

The values above are taken from article PMC9911399, “Two distinct binding modes provide the RNA-binding protein RbFox with extraordinary sequence specificity”.
